Data: PubChem BioAssay AID588579 (National Center for Advancing Translational Sciences (NCATS), 2011)
Several values for one entry are separate records, joined by “and”; a condition that tells them apart may be missing. Equal values may be shown once. Hit rate of the full screen: of about 400,000 compounds, about 2,200 (0.55%) were called active. The shares of active, inactive and inconclusive entries below differ from those in the screen. The call rests on the fitted dose curve; in most records, active means well fitted inhibition curve with a large enough effect; inconclusive means small, poorly fitted or top-dose-only effect, or another doubt; inactive means no such curve, though single readings can be large or run the other way. Potencies beside an inconclusive call are fits to weak or partial responses and may not hold up.

What follows are compounds tested against DNA polymerase kappa (Homo sapiens) (UniProt Q9UBT6) (assay: qHTS for Inhibitors of Polymerase Kappa). Details: purified Pol kappa, fluorescent DNA synthesis assay, 10 min; series mostly up to 107 µM; activity, negative = inhibition: at the top concentration.
Method in brief: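 Pol kappa 10 nM + cpd, 15 min RT; start w/ substrate 50 nM final; fluorescence kinetic read, 0 and 10 min. Neg ctrl: buffer, no enzyme.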
On the % scale 0 is the no-effect control and ±100 the full control effect; potency means the concentration at half of the fitted maximal effect; tags describe the fitted curve by direction and shape.

UniProt Q9UBT6, sequence (Q9UBT6 whole entry, looked up): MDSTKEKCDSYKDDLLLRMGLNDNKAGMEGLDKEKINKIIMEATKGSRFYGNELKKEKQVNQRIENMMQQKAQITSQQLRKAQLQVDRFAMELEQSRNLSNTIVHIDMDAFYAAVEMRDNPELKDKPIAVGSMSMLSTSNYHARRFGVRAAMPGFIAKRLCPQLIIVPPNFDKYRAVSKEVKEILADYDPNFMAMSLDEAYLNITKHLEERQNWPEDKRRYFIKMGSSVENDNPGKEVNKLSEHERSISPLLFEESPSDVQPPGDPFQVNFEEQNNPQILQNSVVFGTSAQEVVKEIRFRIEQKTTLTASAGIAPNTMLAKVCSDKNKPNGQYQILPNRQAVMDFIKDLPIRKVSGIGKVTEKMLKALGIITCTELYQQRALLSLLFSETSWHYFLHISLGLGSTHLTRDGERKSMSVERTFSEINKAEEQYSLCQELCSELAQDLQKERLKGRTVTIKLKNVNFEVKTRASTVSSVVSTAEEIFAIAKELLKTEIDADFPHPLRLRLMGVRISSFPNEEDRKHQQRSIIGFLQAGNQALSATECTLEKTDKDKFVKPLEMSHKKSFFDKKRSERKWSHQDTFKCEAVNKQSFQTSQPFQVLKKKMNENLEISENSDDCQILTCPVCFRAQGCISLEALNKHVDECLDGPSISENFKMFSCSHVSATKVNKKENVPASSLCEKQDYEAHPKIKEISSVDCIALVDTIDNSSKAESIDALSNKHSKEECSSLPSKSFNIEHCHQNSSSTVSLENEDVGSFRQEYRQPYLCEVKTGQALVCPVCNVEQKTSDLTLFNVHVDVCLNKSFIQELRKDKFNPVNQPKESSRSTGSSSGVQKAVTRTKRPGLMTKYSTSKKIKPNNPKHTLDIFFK

Row | Compound | activity, negative = inhibition | Potency
1 | Cc1ccc2oc(-c3ccc(NC(=O)COc4ccccc4)cc3O)nc2c1 | inactive: -7.96% | –
2 | CCc1ccccc1NC(=O)c1cnc(N2CCCCC2)c2ccccc12 | inactive: -3.31% [at 60.1 µM] | –
3 | COc1ccc(-c2c3c(=O)n(C)c(=O)n(C)c3c3n2-c2ccccc2NC3c2ccco2)cc1 (stereo unspecified) | inactive: -2.2% | –
4 | CCOc1ccc(CCNC(=O)Cn2nc(CC)n3c(cc4ccccc43)c2=O)cc1 | inactive: 4.15% | –
5 | O=C(COC(=O)c1ccc(Br)o1)Nc1nc2c(F)c(F)c(F)cc2s1 | – | inconclusive: 100 µM [inhibitor, single point]
6 | COc1cc(/C=C(\C#N)c2nc3ccccc3[nH]2)cc(OC)c1O | – | inconclusive: 56.2 µM [inhibitor, partial curve, poor fit]
7 | COc1cc(C2CC(=O)Oc3c2c(=O)n(C)c2ccccc32)ccc1O (stereo unspecified) | – | inconclusive: 89.1 µM [inhibitor, single point] and inconclusive: 70.8 µM [inhibitor, single point]
8 | Cc1nnc(N2C(=O)c3oc4ccccc4c(=O)c3C2c2ccco2)s1 (stereo unspecified) | – | inconclusive: 70.8 µM [inhibitor, partial curve, poor fit]
9 | Cc1ccc2oc(=O)cc(CN3CCN(Cc4ccccc4)CC3)c2c1 | inactive: 2.9% | –
10 | CC(NC(=O)CNC(=O)c1ccco1)c1ccccc1 (stereo unspecified) | inactive: 3.07% | –
11 | CCc1cc(=O)oc2c(C)c(OCC(=O)Nc3ccc(S(=O)(=O)N(CC)CC)cc3)ccc12 | – | inconclusive: 100 µM [inhibitor, single point]
12 | COCCN(CC(=O)Nc1cccc(C)c1C)C(=O)c1cc2c(s1)CCC2 | – | inconclusive: 89.1 µM [inhibitor, partial curve, poor fit]
13 | COc1ccc2nc(NC(=O)c3nc(S(=O)(=O)Cc4ccc(C)cc4)ncc3Cl)sc2c1 | – | inconclusive: 89.1 µM [inhibitor, single point]
14 | COc1ccc(Nc2cc(C)c3cc(NC(=O)COc4cccc(C)c4)ccc3n2)cc1 | inactive: -1.34% | –
15 | CN(Cc1ccco1)c1ncnc2ccc(-c3ccoc3)cc12 | – | inconclusive: 28.2 µM [inhibitor, partial curve, poor fit] and inconclusive: 79.4 µM [inhibitor, partial curve, poor fit]
16 | C[C@H](NC(=O)[C@@H](N)Cc1ccc(O)cc1)C(=O)NCC(=O)N[C@H]1CSSC[C@@H](C(=O)O)NC(=O)[C@H](CO)NC(=O)[C@H]([C@@H](C)O)NC(=O)[C@H](Cc2ccccc2)NC(=O)[C@H]([C@@H](C)O)NC(=O)[C@H](CCCCN)NC(=O)[C@@H](Cc2c[nH]c3ccccc23)NC(=O)[C@H](Cc2ccccc2)NC(=O)[C@H](Cc2ccccc2)NC(=O)[C@H](CC(N)=O)NC(=O)[C@H](CCCCN)NC1=O | inactive: 16.9% [at 60.1 µM] | –
17 | CCCCC1=CC2=CC(=O)C(C)(OC(=O)C3CCCC3)C(=O)C2=CO1 (stereo unspecified) | – | active: 79.4 µM
18 | O=C(Nc1ccc(Br)cc1F)c1cnn2c1NC(=C1CC1)C=C2C(F)F | – | active: 31.6 µM
19 | O=C(COC(=O)c1ccc([N+](=O)[O-])s1)Nc1ncc(C(F)(F)F)cc1Cl | inactive: -40.4% | –
20 | CCOc1ccc(C(=O)c2oc3ccccc3c2NC(=O)c2cc(=O)c3ccc(C)cc3o2)cc1 | inactive: 13.3% | –
21 | NS(=O)(=O)c1cccc2c1c([N+](=O)[O-])cc1[nH]c(=O)c(=O)[nH]c12 | – | active: 12.6 µM and active: 21.2 µM
22 | COc1ccc(-c2ccc(/C=C3/C(=N)N4C(C)=CSC4=NC3=O)o2)c([N+](=O)[O-])c1 | – | inconclusive: 89.1 µM [inhibitor, partial curve, poor fit]

Row | Compound | activity, negative = inhibition | Potency
23 | O=C(c1nc2ccc(Cl)cn2c1CN1CCCC1)N1CCc2ccccc2C1 | – | inconclusive: 89.1 µM [inhibitor, single point]
24 | CC1=NN(c2ccc(N)cc2)C(=O)C1 | – | inconclusive: 56.2 µM [inhibitor, partial curve, poor fit]
25 | COc1ccccc1OCC(=O)N/N=C/C=C/c1ccc([N+](=O)[O-])o1 | – | inconclusive: 89.1 µM [inhibitor, single point]
26 | CCN(CC)CCOCCOC(=O)C(CC)(CC)c1ccccc1 (tested in a mixture with another compound) | inactive: -11.9% [at 60.1 µM] | –
27 | COc1cc(NC(=O)c2noc3c2CC(C(C)(C)C)CC3)cc(OC)c1OC (stereo unspecified) | inactive: -3.34% | –
28 | OC1C=C2CCN3Cc4cc5c(cc4C(C1O)C23)OCO5 (stereo unspecified) | – | inconclusive: 35.5 µM [inhibitor, partial curve]
29 | OC[C@@H]1[C@@H](c2ccccc2)C(c2ccccc2)=NN1c1ccccc1 | – | inconclusive: 56.2 µM [inhibitor, partial curve, poor fit]
30 | CCOC(=O)CSc1nc2cc(OC)ccc2cc1C#N | – | inconclusive: 39.8 µM [inhibitor, single point]
31 | N#Cc1c2c(c(-c3ccco3)[nH]c1=O)CCCC2 | – | inconclusive: 50.1 µM [inhibitor, partial curve]
32 | CN1CCN(C(=O)c2ccccc2-c2ccccc2C(=O)O)CC1 | inactive: -11.5% | –
33 | O=C(CSC(=S)N1CCOCC1)c1cc(Br)cc(Br)c1O | – | active: 79.4 µM
34 | Cc1[nH]c(-c2ccc(F)cc2)cc1C(=O)N1CCN(c2ccccc2F)CC1 | inactive: -5.73% | –
35 | Cc1ccc(Cc2cnc(N3C(=N)SC(c4ccccc4)C3=O)s2)cc1 (stereo unspecified) | – | inconclusive: 89.1 µM [inhibitor, single point]
36 | COc1ccccc1NC(=O)CCc1nnc2ccc(NCc3ccco3)nn12 | inactive: -18.7% | –
37 | Cc1nc(Nc2ccc(C(=O)O)cc2)nc(Nc2ccc(C(=O)O)cc2)c1[N+](=O)[O-] | – | inconclusive: 79.4 µM [inhibitor, single point]
38 | O=C(CSc1nc2ccccc2c2nc(-c3ccccc3)nn12)Nc1ccc(F)cc1 | inactive: -0.834% [at 60.1 µM] | –
39 | Cc1cc(/C=N/NC(N)=S)c(C)n1-c1cccc(Cl)c1 | inactive: -8.43% | –
40 | COc1ccc(Br)cc1/C=c1\sc2nc(-c3ccco3)nn2c1=O | – | active: 20 µM
41 | Cc1cccc(N=C2NC(=O)S/C2=C\c2ccco2)c1 | – | active: 79.4 µM
42 | COc1ccc(S(=O)(=O)N2CCOCC2)cc1NC(=O)COC(=O)c1ccc([N+](=O)[O-])s1 | inactive: -24.3% | –
43 | O=C(Nc1nncs1)c1cc(S(=O)(=O)N2CCCCC2)ccc1Cl | – | inconclusive: 100 µM [inhibitor, partial curve, poor fit]
44 | COc1ccc(NC(=S)N2CCCN(Cc3cccc(Cl)c3)C2)cc1 | inactive: -2.43% | –

Row | Compound | activity, negative = inhibition | Potency
45 | C=C(c1nc2ccccc2s1)C1Cc2cccc3c2N(CCC3)C1 (stereo unspecified) | – | inconclusive: 63.1 µM [inhibitor, partial curve, poor fit]
46 | CCOC(=O)c1sc2ncn(CC(=O)Nc3cc(C)cc(C)c3)c(=O)c2c1C | inactive: -14.1% | –
47 | CCOc1ccc(NC(=S)NCCCc2ccccc2)cc1 | inactive: -15.9% | –
48 | CCC(C(=O)NCc1ccc(F)cc1)N(Cc1cccs1)C(=O)c1snc(C(N)=O)c1N (stereo unspecified) | – | inconclusive: 100 µM [inhibitor, partial curve, poor fit]
49 | Cc1ccc(-c2c(C)n3c4c(=O)n(C)c(=O)n(C)c4nc3n2CCCO)cc1 | inactive: 2.66% | –
50 | COc1ccc(C(=O)Nc2cccc(-c3nc4cccnc4s3)c2C)c(OC)c1 | – | inconclusive: 100 µM [inhibitor, single point]
51 | OC[C@@H]1[C@@H](c2ccccc2)C(c2cccc(Cl)c2)=NN1c1ccccc1 | – | inconclusive: 50.1 µM [inhibitor, partial curve, poor fit]
52 | CC(=O)c1ccc(NC(=O)CN2CCN(S(=O)(=O)c3ccc4ccccc4c3)CC2)cc1 | – | inconclusive: 89.1 µM [inhibitor, single point]
53 | CS(=O)(=O)Nc1cccc(C2=NN(S(=O)(=O)c3ccccc3)C(c3cccs3)C2)c1 (stereo unspecified) | – | inconclusive: 89.1 µM [inhibitor, single point]
54 | NC(=O)c1ccsc1NC(=O)COC(=O)c1cnccn1 | – | inconclusive: 100 µM [inhibitor, single point]
55 | Cc1cc(C)c2oc(C(=O)Nc3ccc(S(=O)(=O)Nc4nccs4)cc3)cc(=O)c2c1 | – | inconclusive: 100 µM [inhibitor, single point]
56 | O=C(NC(NNc1ccc([N+](=O)[O-])cc1)(C(F)(F)F)C(F)(F)F)c1ccc(Cl)cc1 | inactive: -8.78% | –
57 | CSc1cccc(NC(=O)/C=C/c2ccco2)c1 | – | inconclusive: 89.1 µM [inhibitor, single point]
58 | CCn1cc(S(=O)(=O)c2ccc(C)cc2C)c(=O)c2cc(F)c(N3CCCC3)cc21 | inactive: -3.68% | –
59 | C=C(C)C(=O)O[C@H]1C/C(C)=C\C(=O)/C=C(\C)[C@H](O)[C@@H]2OC(=O)C(=C)[C@@H]21 | – | inconclusive: 56.2 µM [inhibitor, partial curve, poor fit]
60 | Oc1c(Br)cc(C=Nc2ccc3nc(-c4ccccc4)[nH]c3c2)c(O)c1Br | – | active: 50.1 µM
61 | COc1cc(NC(=O)CSc2ccc(-c3sc(-c4ccccc4)nc3C)nn2)cc(OC)c1 | – | inconclusive: 89.1 µM [inhibitor, single point]
62 | O=C(O)COc1ccccc1/C=C1\SC(=S)N(c2cccnc2)C1=O | – | inconclusive: 89.1 µM [inhibitor, single point]
63 | N#Cc1sc2nc(-c3ccccc3)cc(-c3ccco3)c2c1N | – | active: 50.1 µM
64 | O=C(O)/C(=C\c1ccc(Cl)cc1)c1ccc(S(=O)(=O)N2CCCC2)s1 | – | inconclusive: 89.1 µM [inhibitor, partial curve, poor fit]
65 | CCN1CCN=C1Nc1ccccc1 | – | inconclusive: 89.1 µM [inhibitor, single point]
66 | Cc1ccc(C(=O)Nc2ccc(N3CCN(C(=O)c4ccco4)CC3)cc2)c(Cl)c1 | – | inconclusive: 89.1 µM [inhibitor, single point]
